Results published in the supplement of paper PMC7826260.
Some of the results follow. The data describe in vitro nicking of single-stranded DNA by Rep domains (3 µM enzyme, 1 h, 37 °C); shown is the middle of each 90-letter strand. Values are log2 of uncut reads against the no-enzyme pool; strong cutting gives strongly negative numbers. There is no active / inactive call. Reads are scaled to the total, so uncut sequences can rise above 0 when many others are cut.

What follows are sequences tested on T1, Rep nickase domain of tomato golden mosaic virus (assay: uncleaved DNA left, log2 of reads against the no-enzyme library (log2 ratio); higher = less cleavage (more negative = more Rep cleavage of the k-mer); sequences stand for … in CTCGTCCG…ACCGGAGA).
T1 sequence (residues 1-124 of Rep, tag left off): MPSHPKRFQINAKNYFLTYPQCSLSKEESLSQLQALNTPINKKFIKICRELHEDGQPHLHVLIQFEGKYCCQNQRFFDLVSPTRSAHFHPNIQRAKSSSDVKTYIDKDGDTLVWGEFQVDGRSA
Method: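 A pool of 90-nt single-stranded DNAs with seven random bases just before the constant AC of the nick site (name = the seven bases) was cut by 3 µM recombinant His6-SUMO-tagged Rep nickase domain (300 nM DNA, 50 mM HEPES pH 8.0, 50 mM NaCl, 1 mM MnCl2, 1 h, 37 °C, three replicates). Uncut DNA was amplified and sequenced.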
CTCCTCG was tested, and the “uncleaved DNA left (log2)” value was -0.00953. CGTGAGA was tested, and the “uncleaved DNA left (log2)” value was 0.049. For CTCACTG, the “uncleaved DNA left (log2)” value was 0.0468. With TTCGAGG the “uncleaved DNA left (log2)” value was 0.0456. TGCAGAT was tested, and the “uncleaved DNA left (log2)” value was 0.113. GTCTGTA was tested, and the “uncleaved DNA left (log2)” value was -0.0593. ACTTAGG was tested, and the “uncleaved DNA left (log2)” value was 0.137. In the case of GCTAGTG, the “uncleaved DNA left (log2)” value is reported as 0.282. With CTACCAG the “uncleaved DNA left (log2)” value was -0.142. In the case of GCCTCTG, the “uncleaved DNA left (log2)” value is reported as 0.0309. For GCACTTT, the “uncleaved DNA left (log2)” value was -0.105. CTGTTTG was tested, and the “uncleaved DNA left (log2)” value was -0.129. In the case of GGCTGTT, the “uncleaved DNA left (log2)” value is reported as 0.0254. With AACCCTT the “uncleaved DNA left (log2)” value was -0.0865. For GTATCTG, the “uncleaved DNA left (log2)” value was 0.165. With AGATTTA the “uncleaved DNA left (log2)” value was 0.0368. TAGAGTA was tested, and the “uncleaved DNA left (log2)” value was 0.111. In the case of TAATTAG, the “uncleaved DNA left (log2)” value is reported as 0.0409. With TTAATAA the “uncleaved DNA left (log2)” value was -0.0449. In the case of AGGAGTT, the “uncleaved DNA left (log2)” value is reported as -0.00603. In the case of ATTCCCA, the “uncleaved DNA left (log2)” value is reported as -0.041. GGCGCAG was tested, and the “uncleaved DNA left (log2)” value was 0.0829. TTAACCA was tested, and the “uncleaved DNA left (log2)” value was -0.0356. For CAGTTTT, the “uncleaved DNA left (log2)” value was -0.575. With AGAGTTA the “uncleaved DNA left (log2)” value was 0.237. GATATGG was tested, and the “uncleaved DNA left (log2)” value was 0.0444. With TGCTCCG the “uncleaved DNA left (log2)” value was -0.115. In the case of TTGGGCG, the “uncleaved DNA left (log2)” value is reported as -0.0558. With GAGACTT the “uncleaved DNA left (log2)” value was -0.119. For CGGTTTC, the “uncleaved DNA left (log2)” value was -0.0235. CAAAGAC was tested, and the “uncleaved DNA left (log2)” value was 0.0128. TAAGTTG was tested, and the “uncleaved DNA left (log2)” value was 0.0491. With GCCAACA the “uncleaved DNA left (log2)” value was -0.0273. For ATCCCCC, the “uncleaved DNA left (log2)” value was -0.241. With TTCCGCA the “uncleaved DNA left (log2)” value was -0.0796. For ACTTAGC, the “uncleaved DNA left (log2)” value was -0.0571. In the case of TACGGCT, the “uncleaved DNA left (log2)” value is reported as -0.092. TTACCGT was tested, and the “uncleaved DNA left (log2)” value was -0.204. For CGCTATG, the “uncleaved DNA left (log2)” value was -0.0989. CGAATCA was tested, and the “uncleaved DNA left (log2)” value was 0.126.
